# Assay results: PubChem BioAssay AID624296 (National Center for Advancing Translational Sciences (NCATS), 2012)
# About 9,900 (2.8%) of roughly 350,000 compounds were called active. This list was built around the results that the source calls inconclusive (neither active nor inactive); the mix of calls is not that of the screen. Calls follow the shape of the dose curve; as a rule, active = well fitted activation curve with a large enough effect; inconclusive = small, poorly fitted or top-dose-only effect; inactive = no such curve, though single readings can be large or run the other way. Potencies of inconclusive entries are left out as doubtful fits.
# Test: A quantitative high throughput screen for small molecules that induce DNA re-replication in MCF 10a normal breast cells. Also: nearly all actives have a fitted effect of over 50% in size.
# Conditions: MCF 10A DNA re-replication, Hoechst nuclear intensity, 48 h; series mostly up to 46.1 µM
# Potency is read from the fitted curve at half-maximal effect; tags tell the direction and shape of the fitted curve.
row,Structure (SMILES),Potency
1,COC(=O)c1c(C)oc2ccc(NS(=O)(=O)c3cc(OC)ccc3OC)cc12,"inconclusive [activator, partial curve, poor fit]"
2,NCc1ccccc1CS(=O)(=O)N1CCOCC1,inactive
3,O=C1C=Cc2ccccc2/C1=C/c1[nH]c(=O)[nH]c1O,inactive
4,Cc1nc2ccccc2nc(C)c1=NOCc1cccc(Cl)c1,inactive
5,C=CCC(C(=O)Oc1c(C(C)(C)C)cc(C)cc1C(C)(C)C)c1ccccc1 (stereo not drawn),"inconclusive [activator, full curve, poor fit]"
6,CCc1cccc2c(C(=O)COC(=O)c3nn(C)c(=O)c4ccccc34)c[nH]c12,"inconclusive [activator, full curve, poor fit]"
7,O=C(CCC(=O)N1CCN(c2cccc(Cl)c2)CC1)c1cccs1,"inconclusive [activator, single point]"
8,O=C(Cc1ccc([N+](=O)[O-])cc1)N1N=C(C2CC2)CC1(O)C(F)(F)F (stereo not drawn),"inconclusive [activator, single point]"
9,O=C1CCCN1CC(CN1CCOCC1)Sc1nc2ccccc2c(=O)n1-c1ccccc1 (stereo not drawn),"inconclusive [activator, partial curve]"
10,COc1ccc(NC2=NCC(Cc3ccc(Br)cc3)S2)cc1 (stereo not drawn),"inconclusive [activator, single point]"
11,COc1cc(-c2noc(-c3ccco3)n2)cc(OC)c1OC,"inconclusive [activator, single point]"
12,N#Cc1ccsc1NC(=O)CN1CCN(c2ccccc2)CC1,"inconclusive [activator, single point]"
13,CCCCCC(=O)Nc1cccc(C2=NOC3(C2)C[C@H](C(N)=O)N(C(=O)COc2ccc(Cl)cc2)C3)c1 (stereo partly drawn),"inconclusive [activator, partial curve, poor fit]"
14,Cc1cccc(N=C2NC(=O)/C(=C/c3cccn3C)S2)c1C,"inconclusive [activator, single point]"
15,O=C1OCC(CO)(CO)N=C1NNc1cc(Cl)ccc1Cl,"inconclusive [activator, single point]"
16,Cc1cccc(CN2CCc3c([nH]c4ccccc34)C2)c1,"inconclusive [activator, single point]"
17,CCC(=O)N1CCc2cc(S(=O)(=O)CCC(=O)Nc3nc(C)cs3)ccc21,"inconclusive [activator, single point]"
18,Cc1cc(C)cc(NC(=S)/C(=C(\[O-])c2ccc(Cl)cc2Cl)[n+]2ccccc2)c1,"inconclusive [activator, partial curve, poor fit]"
19,O=C1c2ccc(-c3ccc4c(c3)C(=O)N(CCO)C4=O)cc2C(=O)N1CCO,inactive
20,c1ccc(NCCc2ccccn2)cc1,inactive
21,CC1CCN(C(=O)c2ccc(-c3ccccc3Cl)o2)CC1,"inconclusive [activator, single point]"
22,Cc1nn(Cc2c(F)c(F)c(F)c(F)c2F)c(C)c1NC(=O)c1ccc(COc2ccccc2Cl)o1,inactive
23,COc1ccc(CNC(=O)CCSc2ccc(F)cc2)cc1OC,"inconclusive [activator, partial curve, poor fit]"

row,Structure (SMILES),Potency
1,O=c1oc2cc(OCc3ccc(F)cc3F)ccc2cc1-c1ccccn1,"inconclusive [activator, partial curve, poor fit]"
2,Cc1cc(S(=O)(=O)NCCC2=CCCCC2)ccc1Br,"inconclusive [activator, single point]"
3,Cc1cc(C(C)(C)CC(C)(C)C)ccc1OCCOCC[N+](C)(C)Cc1ccccc1,"inconclusive [activator, single point]"
4,COc1ccc(-c2nnc(SC(C)C(=O)Nc3nccs3)n2-c2ccccc2)cc1OC (stereo not drawn),inactive
5,CCOC(=O)c1cc(-c2ccccc2)n(CC(=O)Nc2ccc(OC)c(OC)c2)c1C,"inconclusive [activator, partial curve, poor fit]"
6,COc1ccc(C2CCCN2CC(O)COc2ccccc2C(C)C)cc1 (stereo not drawn),"inconclusive [activator, single point]"
7,COc1ccc(CNC(=O)Cn2ncn3c(cc4ccccc43)c2=O)cc1,inactive
8,CCCCc1ccc(Nc2nc(CCC)cc(=O)[nH]2)cc1,active: 5.8 µM
9,O=c1c2ccccc2[nH]c(=S)n1CCN1CCc2ccccc2C1,"inconclusive [activator, partial curve, poor fit]"
10,CCOc1ccccc1OCCCOc1ccc(C)cc1Br,"inconclusive [activator, partial curve, poor fit]"
11,Cc1ccc(C)c2nc(N3CCCC3)c(C#N)cc12,"inconclusive [activator, single point]"
12,Cc1ccccc1CN1C(=O)C(O)(CC(=O)c2ccncc2)c2ccccc21 (stereo not drawn),"inconclusive [activator, partial curve, poor fit]"
13,CN1CCN(c2ccc(S(=O)(=O)N3CCCCC3)cc2NC(=O)COc2cccc(Cl)c2)CC1,"inconclusive [activator, full curve, poor fit]"
14,Cc1ccc(NC(=O)N2CCC(C(N)=O)CC2)cc1,"inconclusive [activator, partial curve, poor fit]"
15,CCOC(=O)c1nn(-c2ccc(C)c(C)c2)cc1O,inactive
16,CC(C)CCN1NC2(CCCC(C)C2)NC1=S (stereo not drawn),"inconclusive [activator, single point]"
17,S=C(NNC(=S)NC1CC2CCC1C2)NC1CC2C=CC1C2 (stereo not drawn),"inconclusive [activator, partial curve, poor fit]"
18,CC1CCN(C(=O)CN2C(=O)NC(c3ccccc3)(c3ccccc3)C2=O)CC1,inactive
19,O=c1ccc(/C=C/c2ccccc2)nn1Cc1ccccc1Cl,"inconclusive [activator, single point]"
20,COc1cccc(C2CC(c3ccccc3Cl)n3ncnc3N2)c1 (stereo not drawn),"inconclusive [activator, partial curve, poor fit]"
21,O=C(CN1CCCCC1)N1c2ccccc2Oc2ccccc21,"inconclusive [activator, single point]"
22,Cc1ccc(NC(=S)NC(=O)c2ccc(-c3ccc(Cl)cc3)o2)c(O)c1,"inconclusive [activator, partial curve, poor fit]"
23,COc1cc(NS(=O)(=O)c2ccc(OC)c(C)c2C)c(OC)cc1Cl,"inconclusive [activator, full curve, poor fit]"

row,Structure (SMILES),Potency
1,Nc1nc(Cl)cc(N2CCCC2)n1,inactive
2,O=C(C(=O)N1CCN(Cc2ccc3c(c2)OCO3)CC1)c1c[nH]c2ccccc12,inactive
3,S=C(NCc1cccc(Cl)c1)NCc1ccco1,"inconclusive [activator, single point]"
4,COc1ccccc1NC(=O)c1ccc(S(=O)(=O)N2CCOCC2)cc1,inactive
5,Cc1ccc(NC(=O)CNC(=O)c2ccc(OC(F)F)cc2)cc1S(=O)(=O)N1CCCCCC1,"inconclusive [activator, single point]"
6,Cc1ccc(Nc2nc(N)c([N+](=O)[O-])c(NCc3ccccc3)n2)cc1,"inconclusive [activator, single point]"
7,CSc1nnc(C)c(=O)n1COC(=O)COc1ccccc1C,inactive
8,COc1ccc(C(=O)Nc2ccccc2C(=O)N/N=C/c2ccncc2)cc1OC,inactive
9,COc1ccc2nc3cccc(OC)c3nc2c1,active: 1.3 µM
10,COc1cc(/C=C2/SC(=O)NC2=O)ccc1OCc1ccccc1,active: 25.9 µM
11,Cc1csc(N2CCN(c3cc4c(cc3Cl)nc(-c3ccncc3)n4CCCN3CCCC3)CC2)n1,"inconclusive [activator, single point]"
12,Cc1cc(Cl)c2oc(C(=O)N3CCC(O)(c4ccccc4)CC3)c(C)c2c1,"inconclusive [activator, single point]"
13,Cc1cc(C(=O)OCC(=O)N(C)c2ccccc2)c(C)o1,inactive
14,COC(C[C@H]1O[C@H]1[C@@H](O)[C@H](C)OCc1ccccc1)OC,"inconclusive [activator, full curve, poor fit]"
15,CC(C)C[C@@H](CN1CCCC1CN1C(=S)NC[C@@H]1Cc1ccc(O)cc1)N1C[C@H](Cc2ccccc2)N(CC2CCCCC2)C1=S (stereo partly drawn),"inconclusive [activator, partial curve, poor fit]"
16,Cc1ccc(SCC2(O)CCN(C(=O)c3ccc(Cl)cc3)CC2)cc1,inactive
17,Cc1ccc(S(=O)(=O)CCC(=O)Nc2nnc(-c3ccco3)o2)cc1,"inconclusive [activator, single point]"
18,Cc1cc(C)c2c(N)c(C(=O)NN)sc2n1,"inconclusive [activator, single point]"
19,CC1=CC2=NC(=O)/C(=C\c3cn(C)c4ccccc34)C(=N)N2O1,inactive
20,CCC(C)NS(=O)(=O)c1ccc(OCC(=O)NCc2ccccn2)cc1 (stereo not drawn),"inconclusive [activator, single point]"
21,CCNS(=O)(=O)c1ccc(NC(=O)Nc2cccc(C(F)(F)F)c2)cc1,"inconclusive [activator, single point]"
22,COc1ccc(S(=O)(=O)N(CC(=O)N2CCOCC2)c2ccc(F)cc2)cc1OC,inactive
